Paper PMC4336329 (PLoS ONE, 2015)
The campaign covered roughly 310,000 compounds. About 14,000 (4.5%) showed an effect of 50% or more. The effect is printed as a negative number. Some of the results follow.

These compounds were tested against human ether-à-go-go-related gene (hERG) potassium channel (human, UniProt Q12809) (assay: primary screen, population patch clamp on CHO cells stably expressing hERG).
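Note: peak tail current of the secondary pulse compared with the same well before compound.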

Chain of human ether-à-go-go-related gene (hERG) potassium channel (Q12809 whole entry, looked up): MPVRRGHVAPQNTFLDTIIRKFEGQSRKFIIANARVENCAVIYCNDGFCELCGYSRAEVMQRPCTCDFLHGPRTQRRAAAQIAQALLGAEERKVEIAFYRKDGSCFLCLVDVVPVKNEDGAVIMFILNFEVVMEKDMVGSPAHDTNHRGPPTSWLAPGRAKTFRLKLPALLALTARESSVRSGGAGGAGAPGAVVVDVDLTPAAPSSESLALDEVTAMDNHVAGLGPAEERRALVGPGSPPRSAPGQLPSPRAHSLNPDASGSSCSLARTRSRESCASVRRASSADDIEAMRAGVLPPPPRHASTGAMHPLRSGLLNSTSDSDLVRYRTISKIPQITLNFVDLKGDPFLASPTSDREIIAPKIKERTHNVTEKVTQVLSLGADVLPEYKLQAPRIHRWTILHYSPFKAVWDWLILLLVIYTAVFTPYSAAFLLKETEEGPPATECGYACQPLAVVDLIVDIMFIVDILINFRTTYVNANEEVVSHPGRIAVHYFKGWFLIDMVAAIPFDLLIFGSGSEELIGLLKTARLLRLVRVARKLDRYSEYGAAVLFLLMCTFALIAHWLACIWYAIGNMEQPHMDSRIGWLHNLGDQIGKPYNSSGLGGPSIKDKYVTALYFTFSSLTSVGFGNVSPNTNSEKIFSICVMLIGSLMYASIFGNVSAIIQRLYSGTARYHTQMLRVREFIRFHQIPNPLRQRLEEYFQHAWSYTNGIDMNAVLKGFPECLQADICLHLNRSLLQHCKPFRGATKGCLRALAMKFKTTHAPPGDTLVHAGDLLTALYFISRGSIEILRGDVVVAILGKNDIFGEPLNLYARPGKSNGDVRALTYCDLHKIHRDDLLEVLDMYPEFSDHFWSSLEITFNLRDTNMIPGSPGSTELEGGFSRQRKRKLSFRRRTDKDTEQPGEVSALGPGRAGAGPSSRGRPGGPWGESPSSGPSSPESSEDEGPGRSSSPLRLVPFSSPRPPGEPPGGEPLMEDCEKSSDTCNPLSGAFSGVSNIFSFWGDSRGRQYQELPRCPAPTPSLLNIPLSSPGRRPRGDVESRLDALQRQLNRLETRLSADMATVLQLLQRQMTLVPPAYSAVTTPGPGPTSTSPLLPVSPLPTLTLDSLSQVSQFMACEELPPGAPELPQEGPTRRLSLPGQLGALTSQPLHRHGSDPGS

SMILES	hERG current change (%, negative = inhibition) at 10uM [%]
O=S(=O)(NCc1cccs1)c1ccc(Cl)s1	2.82
CS(=O)(=O)N(CC(=O)NCc1ccc2c(c1)OCO2)c1ccc(Cl)cc1	1.65
O=C(c1ccc(Br)cc1)c1cc([N+](=O)[O-])ccc1N1CCCCC1	-25.3
O=C(CSc1nnc(-c2ccccc2)n1Cc1ccco1)Nc1ccc2c(c1)OCCO2	1.43
O=C(NNC1CC(=O)N(c2ccc(Br)cc2)C1=O)c1ccco1 (stereo not shown)	7
COC(=O)c1ccc(C(=O)OC)c(NC(=O)CN2CCC(C)CC2)c1	64.2
Cc1cc(N2CCCC2=O)ccc1S(=O)(=O)NC1CCCCC1	2.14
c1ccc(COCC2CCNCC2)cc1	23.6
COc1cccc(C2=NOC(C(=O)Nc3cccnc3Cl)C2)c1OC (stereo not shown)	12.9
COc1ccc([N+](=O)[O-])c(S(=O)(=O)c2ccccc2)n1	7.93
CSc1cccc(NC(=O)C2CCN(C(=O)c3ccccc3C)CC2)c1	-18.7
COc1ccc(-c2csc(NC(=O)Nc3ccccc3)n2)cc1	17.8
CCOC(=O)C(O)(CC(=O)c1ccc(Cl)cc1)C(=O)OCC	-3.44
O=C(CCCn1c(=S)[nH]c2ccsc2c1=O)NCCc1ccccc1	4.05
O=C(NCc1ccco1)C(NS(=O)(=O)c1cccc2nsnc12)c1ccccc1 (stereo not shown)	-14.5
COc1ccccc1NC(=O)Cn1c2ccc(F)cc2c2nc3n(c(=O)c21)CCS3	-12.6
O=C1CC(Sc2ccc(Cl)cc2)C(=O)N1c1ccc2c(c1)OCCO2 (stereo not shown)	1.43
O=C(CCN1C(=O)/C(=C/c2ccc(Cl)cc2)SC1=S)NC1C=CS(=O)(=O)C1 (stereo not shown)	16.3
COc1ccc(NC(=O)CN2C(=O)NC3(CCCC3)C2=O)cc1OC	22.8
CCCSc1ccc(-c2nn(-c3ccccc3)cc2/C=C(/C#N)C(=O)NCCCOC)cc1	5.33
O=C(c1ccc(-c2ccccc2)c(F)c1)C1CCCN(CCCn2cccn2)C1 (stereo not shown)	-69.6
O=C(CN1CCN(c2ncccn2)CC1)NCc1ccc2c(c1)OCO2	20.4

SMILES	hERG current change (%, negative = inhibition) at 10uM [%]
Cc1cccc(OCc2nc(-c3ccc(-n4cccc4)cc3)no2)c1	12.2
CN1CCN(C2=Cc3ccccc3Sc3cc(F)c(F)cc32)CC1.CS(=O)(=O)O	-22.5
CCOC(=O)N1CCN(CC(=O)N2c3ccccc3Sc3ccccc32)CC1.O=C(O)C(=O)O	2.33
CC(=O)c1cccc(OC(=O)c2cc(S(=O)(=O)N3CCOCC3)ccc2N2CCCC2)c1	-28.4
CCN(c1ccccc1)S(=O)(=O)c1ccc(C(=O)Nc2nnc(C3CC3)o2)cc1	-3.31
CC(=O)c1c(C)nc(Nc2nc(C)c3cc(C)ccc3n2)nc1C	10.6
O=C(Nc1nc(-c2cccs2)cs1)c1ccco1	-6.94
COc1ccc(C(=O)Nc2c(N)nc(SCC(=O)NCC3CCCO3)[nH]c2=O)cc1OC (stereo not shown)	-21.4
CCOCCCN1C(=O)CN(C2CCCCC2)C(=O)C1c1ccc(OCC)c(OC)c1 (stereo not shown)	3.29
Cc1ccc(O)c(/C=N/NC(=O)COc2ccc3c(C)cc(=O)oc3c2)c1	2.09
O=[N+]([O-])c1ccccc1/C=N/n1c(-c2cccnc2)n[nH]c1=S	15.9
CNC(=O)NC(=O)CSc1ccc(S(=O)(=O)N2CCOCC2)cn1	2.81
Cc1ccc(CNS(=O)(=O)/C=C/c2ccc3c(c2)OCO3)cc1	-14.1
Cc1cc(Nc2ccccc2F)n2ncnc2n1	0.765
COCCCNC(=S)NNC(=S)Nc1ccccc1	26.2
O=C(COc1ccc(/C=N/NS(=O)(=O)c2ccccc2)cc1)Nc1cccc(Cl)c1	-3.5
COC(=O)CN1C(CN2CCOCC2)=Nc2ccc(Br)cc2C1c1ccccc1 (stereo not shown)	-75.3
Cc1nn(-c2ccccc2)c(Cl)c1/C=N/NC(=O)c1ccc(CNc2ccccc2)o1	0.462
Cc1ccc(C)c(SCC(=O)Nc2oc(C)c3c(C)n[nH]c(=O)c23)c1	-52.4
COc1ccccc1-n1c(O)c(C=NCc2ccc3c(c2)OCO3)c(=O)[nH]c1=O	9.11
O=C(NCCS(=O)(=O)N1CCC2(CC1)OCCO2)c1ccc(F)cc1	8.92
CC(=O)Cc1nsc(Nc2ccc(C)cc2)n1	21

SMILES	hERG current change (%, negative = inhibition) at 10uM [%]
Cc1cc(C)c(S(=O)(=O)c2cccc(C)c2C)c(=O)[nH]1	10
Cc1cc2ccccn2c1C(=O)c1nc(NCc2ccccc2)ncc1Cl	11.8
CCOc1ccccc1Nc1nc(-c2cccnc2)cs1	1.95
COc1ccc(N2CCN(C(=O)CSc3nc4[nH]ncc4c(=O)n3-c3ccc(Br)cc3)CC2)cc1	-12.9
CCn1nnc(NC(=O)c2sc3ccccc3c2Cl)n1	-7.46
CC/C(=N/Nc1ccc(Cl)cc1)c1cnnc(SC)n1	8.85
O=C(NCc1ccc(F)cc1)C1CCCN1C(=O)Nc1ccccc1 (stereo not shown)	-2.89
Cc1nc2nc(NCc3cccs3)nn2c(C)c1Cl	-12.9
CN1CCN(S(=O)(=O)c2ccc3c(c2)oc(=O)n3C)CC1	13.4
O=C(CN1CCC(NC(=O)c2ccco2)CC1)Nc1ccccc1C(F)(F)F	-23.8
Cc1ccc(/C=N/N2CCN(Cc3cccc4ccccc34)CC2)s1	-3.05
COc1cccc(CNc2cc(CSc3ccc(Cl)cc3)nc(C)n2)c1	-7.29
CCc1nnc(NS(=O)(=O)c2ccc(NC(=O)Nc3ccc(OC)cc3)cc2)s1	26.3
Cl.FC(F)(F)c1ccccc1/C=N/N1CCN(Cc2ccccc2)CC1	-2.71
CCC(=O)N1CCN=C1SCc1cc(C)ccc1C	-2.85
CN(C(=O)Cn1nc(Cl)ccc1=O)C1CCCN(Cc2ccccc2F)C1 (stereo not shown)	19.3
COc1ccccc1C(=O)Nc1nnn(C)n1	11.3
O=C(O)c1cc(C(F)(F)F)nc2c(C(F)(F)F)cccc12	19.5
Cc1occc1C(=O)Nc1nnc(-c2cccs2)s1	11.2
CCOP(=O)(OCC)C(NC(=O)Nc1ccc(Cl)cc1)C(=O)N(CC)CC (stereo not shown)	-13.4
C=CCN1N=C(/C=C/c2ccc(OC)cc2)CCC1=O	6.48
Cc1[nH]c2ccccc2c1C(=O)COC(=O)Cn1c(C(F)(F)F)nc2ccccc21	5.54

SMILES	hERG current change (%, negative = inhibition) at 10uM [%]
C/C(CC(=O)NC1CCCC1)=N\NC(=O)Cc1csc(N)n1	15.5
O=C(CSCc1ccccc1Cl)Nc1ccc2c(c1)OCCO2	-10.4
O=C(O)CCCc1ccc(N(CCCl)CCCl)cc1	12.4
COc1cc(OC)cc(C(=O)N[C@H](C(=O)Nc2ccc(F)cc2F)C(C)C)c1	18.3
COC(=O)C1=C(C)N(CCc2cc(OC)c(OC)c(OC)c2)C(=O)N[C@H]1c1ccccc1	8.82
COc1ccc(C(=O)Nc2nc(N)n(-c3ccccc3)n2)cc1	-11.4
CCC(=O)c1ccc(OCC(=O)OCC(=O)Nc2ccc(C)c(S(=O)(=O)N3CCCCC3)c2)cc1	17.3
Cc1ccc(C)c(N2CCN(C(=O)CCCOc3cc(=O)n(C)c4ccccc34)CC2)c1	-40.8
Cn1c(Cc2ccccc2)nnc1SCC(=O)Nc1ccc2c(c1)OCO2	5.64
CC(C)(C)c1ccc(S(=O)(=O)N2CCSC2)cc1	14.7
CC(=O)NCCn1c(SCC#N)nc2ccccc2c1=O	6.09
CCCSCCCNC(=O)c1ccc(C)c(NC(=O)C2=C(C)OCCS2)c1	-19.8
CCN(C(=O)c1c(C)cc(=O)oc1C)c1ccc2c(c1)OCO2	5.29
O=C(CCc1ccc(S(=O)(=O)NCc2ccccc2)cc1)NCc1ccco1	-7.81
Cc1ccc(-c2csc(N3CCC(NS(=O)(=O)c4ccc5c(c4)OCCO5)CC3)n2)cc1	9.55
CCOCCCNC(=O)N[C@H](C(=O)OC)C(C)CC (stereo partly shown)	4.32
O=C(c1ccc([N+](=O)[O-])cc1)n1nc(-c2ccccc2)nc1NCc1ccc(F)cc1	11.8
COCCNC(=O)c1ccc(CN2CCC(Cc3ccccc3)CC2)cc1	-11.6
CCOc1ccc(C(O)Cn2c(=N)n(CCN3CCCCC3)c3ccccc32)cc1.Cl (stereo not shown)	-77.2
C=C1CC(C)OC(c2ccccc2OCC(O)CN2CCCCC2)C1 (stereo not shown)	-72.4
Cc1ccc(C(=O)OC(C(=O)O)C(OC(=O)c2ccc(C)cc2)C(=O)O)cc1 (stereo not shown)	7.48
O=C(NNc1cc(N2CCOCC2)nc(N2CCOCC2)n1)c1ccc(Cl)cc1Cl	3.39
